± gives the standard deviation. Whole data set: some 6,600 sequences, median “pre-steady-state target cleavage rate” near 0.07, cut for the highest 2% near 0.72. The entries are a selection whose mix differs from that of the whole data set.
tested on: MIWI (PIWIL1) piRISC loaded with Kctd7 piRNA (30 nt); test: pre-steady-state target cleavage rate (min^-1); MIWI and MILI are mouse PIWI proteins and EfPiwi is from a freshwater sponge; tags in brackets are library labels; higher = faster piRNA-guided slicing of the target; conditions: guide: Kctd7 piRNA 5'p-UGUUAAUCUCUCAGAGAAGGUGACAGUGAU; auxiliary factor: 500 nM mouse GTSF1
Outline: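 Active affinity-purified piRISC (1 nM) loaded with one synthetic guide was mixed with a transcribed, DNA-blocked target RNA library (0.1 nM), with or without 500 nM GTSF1 partner protein, in HEPES–potassium acetate buffer at 33 °C for 0–8 or 0–960 min. Uncleaved targets were sequenced, normalised to depth and to weakly complementary targets, and pooled across three trials, with k3 capped at 0.0001 min^-1. The pre-steady-state cleavage rate was determined with a burst-and-steady-state fit.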

Sequence	pre-steady-state target cleavage rate
UACACACACACCUUCUCUGAGAGAUUAACA	0.412 ± 0.036
UAGUGUGUCUCCUUGUCUGAGAGAUUAACA	0.0757 ± 0.011
AUCACUCUCACCUUCUCUGAGUGAUUAACA	0.0296 ± 0.0065
UUCACUGUCUCCUUCUCUGAGAGAUUUACA	0.267 ± 0.036
UAGUGUGUCACGUUCACUGAGAGAUUAACA	0.415 ± 0.026
UAGUGUGUCAGGAUCUCUGAGAGAUUAAGA	0.00435 ± 0.0028
UACACUCUCACCUUCUCUGAGAGAUUAUGA	0.0353 ± 0.013
AUCACUGUCACCUUCGCUGAGAGAUUAACA	0.564 ± 0.049
UAGUCUGUCACCUUCUCUGAGAGAUAAUGA	0.0204 ± 0.0082
UUCACUGUCACCUUCUCUGACUCAUUAACA	0.00765 ± 0.0022
UACACUGUCAGCUACUCUGAGAGAUUAACA	0.562 ± 0.027
UUCACUGUCACCUUCUCUGAGAGAUUAACU [g2:g29:cont:t1U]	0.432 ± 0.036
AUACACUGUCACCUUCUCUGAGAGAUUAACA	0.752 ± 0.05
UACACUGUCACGUUCUCUGAGAGAUUAUGA	0.0469 ± 0.017
AUCACUCUCACCUUCUCUGAGAGAUUUACA	0.191 ± 0.03
UAGACUGUCACCUUCUCAGAGAGAUAAACA	0.107 ± 0.014
UAGUGACUCACCUUCUGUGACAGAUUAACA	0.177 ± 0.014
AUCACUGUCACCUUCUCUGAGCGAUUAACA	0.121 ± 0.012
UUCGCUGUCACCUUCUCUGAGAGAUUAACA	0.626 ± 0.04
UUCACUGUCACCUUCUCUGAGACAUUAUCA	0.0186 ± 0.0051
AUCACUGUGACCUUCUCUGAGAGAUAAACA	0.334 ± 0.032
AUCACUGUCUGCUUCUCUGAGAGAUUUUGA	0.00782 ± 0.0039
UAGUGACAGACCUUCUCUGUGAGAUAAACA	0.012 ± 0.003
UUCACUGUCACCUUCUCUAGAGAUUAACA	0.14 ± 0.012

Sequence	pre-steady-state target cleavage rate
UAGACUGUCAGGAUCUCUGAGAGAUUAACA	0.054 ± 0.0074
UAGUGACAGACCUUCUCUAAGAGAUUAACA	0.0302 ± 0.0063
AUCACUGUCACCUUCUCUGAGAGCUUAACA	0.26 ± 0.024
UUCACUGUCAGCUUCUCUGAGAGAUUAAGA	0.122 ± 0.018
UAGUGACAGUGGAAGACUGAGUGUUUAACA	< 0.0001
UAGUCUGAGACCUUCUCUGAGAGAUUUUGA	0.00468 ± 0.003
UACAGUGUCACCUUGUCUGAGAGAUUAACA	0.225 ± 0.033
UAGUGACACACACUUCUCUGAGAGAUUAACA	0.163 ± 0.03
UAGUGACACAGGUUCUCUGAGAGAUUAACA	0.0143 ± 0.0033
UAGUGAGUCACCUUCUCUGACUGAUUAACA	0.0164 ± 0.0051
UAGUGUGUCACGUUCUCUCAGAGAUUAACA	0.0527 ± 0.0067
UAGUGACUGACCUUCUGUGAGAGAUUAACA	0.172 ± 0.023
UUCUCUGUCACCUUCUCUGAGAGAUUAUGA	0.0755 ± 0.016
UAGUGACAGUGCUUCUCUGAGACAUAAACA	< 0.0001
UAGUGACACACCUUUCUCUGAGAGAUUAACA	0.155 ± 0.012
AUCACUGUCACCUUCUCUGAGCAGAUUAACA	0.0104 ± 0.0035
UAGACUGUCACGAACUCUGAGAGAUUAACA	0.039 ± 0.007
UUCACUGUCAGCUUCUCUGAGAGAUUUUGA	0.0139 ± 0.0051
UAGUCUGUCACCUUCUAUGAGAGAUUAACA	0.207 ± 0.013
UACACUGUCUCCUUCUCUGAGAGAUUAUCA	0.165 ± 0.027
UACACUGUCACCUUCUCUGAGAGAUUAACA [g2:g28:cont:t1A]	0.563 ± 0.039
UUCACUGACUCCUUCUCUGAGAGAUUAACA	0.571 ± 0.033
UAGUGACUGACCUUCUCUGAGUGAUUAACA	0.0116 ± 0.0056
UAGUGACAGACCUUCUCUGAGAGAUUAACA [g2:g21:cont:t1A]	0.17 ± 0.015

Sequence	pre-steady-state target cleavage rate
AUCACUGUCACCAUCUCUGAGAGAUUAUGA	0.0692 ± 0.015
AUCACUGUCACCAUCUCUGAGAGAUUAAGA	0.184 ± 0.032
UUCUCUGUCACCUUCUCUGAGAGAUAUUGA	0.0992 ± 0.024
UAGUGAGUUACCUUCUCUGAGAGAUUAACA	0.512 ± 0.032
AUCACUGUCACCUUCUCUGAGAGAAAAAGA	0.0146 ± 0.0056
UAGUCUGUCUGCUUCUCUGAGAGAUUAUGA	0.00592 ± 0.0022
UAGUGAGUCACCUUCUCUGAGAGAAUAAGA	0.0835 ± 0.026
UAGUGACAGACUUCUCUGAGAGAUUAACA	0.0115 ± 0.0032
UAGUCAGUCACCUUCUCUGAGAGUUUAACA	0.418 ± 0.064
UAGACUCACACCUUCUCUGAGAGAUUUUGA	0.0525 ± 0.013
UAGUGAGUGUCCUUCUCUGAGAGAUUAACA	0.268 ± 0.025
UUCACUCUCACCUUCUCUGAGAGAUUUACA	0.192 ± 0.026
UAGUGUGUCACCUUCUGUGAGAGAUUAUGA	0.0169 ± 0.0063
UUCACUGUCACCUUCUCUGAGAGAAUAACA	0.331 ± 0.048
UAGUGACUAACCUUCUCUGAGAGAUUAACA	0.196 ± 0.012
UACACUGUCACCUUCACUCAGAGAUUAACA	0.0464 ± 0.013
UAGUGUGUAACCUUCUCUGAGAGAUUAACA	0.349 ± 0.03
AUCACUGUCACCUUCCCUGAGAGAUUAACA	0.449 ± 0.064
UAGUGACACUCCUUCUCUGUGAGAUUAACA	0.0537 ± 0.0069
AUCCACUGUCACCUUCUCUGAGAGAUUAACA	0.712 ± 0.046
UUCACUGAGUCCUUCUCUGAGAGAUAUUGA	0.00996 ± 0.0042
AUCUCUGACACCUUCUCUGAGAGAUUAACA	0.558 ± 0.021
UUCACUGUCACCUUCUCUGACAGAUUUUGA	0.00611 ± 0.003
UAGUGAGUCACCAUUCUCUGAGAGAUUAACA	0.538 ± 0.039

Sequence	pre-steady-state target cleavage rate
UAGACUGUGACCUUCUCUCAGAGAUUAACA	0.0671 ± 0.0057
UAGUGUGUCACCUUCUCUAAGAGAUUAACA	0.34 ± 0.036
UAGUGUGUCACGUUGUCUGAGAGAUUAACA	0.317 ± 0.025
UAGUGUGUCAGGUUCUCUGAGAGAUUAACA	0.394 ± 0.04
UAGUCUGUCACCUUCUCUGAGAGAAAAAGA	0.0134 ± 0.0058
UUCACUGUCACCUUCUCACAGAGAUUAACA	0.0193 ± 0.0059
UAGACUGUCACCUUCUGUGAGAGAUUUUGA	0.0328 ± 0.01
UAGACUGUCACCUUCUCUGAGAGAUUAUACA	0.267 ± 0.027
UACACUGUCACCUACUCUGAGAGAUUAAGA	0.117 ± 0.019
UAGUGUGUCACCUUCUCAGAGAGAUAAACA	0.097 ± 0.016
UUCACUGUCUCCUUCUCUGACAGAUUAACA	0.43 ± 0.03
AUCACUGUCACGUUCUCUGAGUGAUUAACA	0.0176 ± 0.0033
UAGUGUGUCACCAUCUCUCAGAGAUUAACA	0.0562 ± 0.013
AUCACUGUGACGUUCUCUGAGAGAUUAACA	0.586 ± 0.039
AUCACUGUCACCUUCUCUGUGAGAUUAUGA	0.0436 ± 0.012
UUCACUGUCACCUUCUCUGUGAGAUUAUGA	0.025 ± 0.007
AUCACUGUCACCUUCUCUGAGAGAUUAAUA	0.45 ± 0.05
UUCACUCGUCACCUUCUCUGAGAGAUUAACA	0.78 ± 0.042
UUCAGUGUCACCUUCUCAGAGAGAUUAACA	0.386 ± 0.018
UAGUGACAGUGGAUGUCUGAGAGUUUAACA	< 0.0001
UAGACUGUCUCCUUCACUGAGAGAUUAACA	0.279 ± 0.018
UAGUGAGUCACCUUCUCUGAGAGAUUAAUA	0.387 ± 0.036
UAGUCUGUCAGCUUCUCUGAGAGAUUAUCA	0.183 ± 0.031
UAGUGACAGUCCUUCUCAGAGAGAUUUACA	0.00666 ± 0.0044

Sequence	pre-steady-state target cleavage rate
UACACUGUCACCUUCUGAGAGAGAUUAAGA	0.0134 ± 0.0062
UUCACUGUCACCUUCUCACAGAGAUUAUGA	0.0046 ± 0.0037
UUCACUGUCACGAACUCUGAGAGAUUAUGA	< 0.0001
UAGUGUGUCACCUUCAGAGAGAGAUUUUGA	0.00707 ± 0.0068
UAGUGACAGUCCUUCACUGUGAGAUUAACA	0.00288 ± 0.0029
UAGUGACACACCUUCUCUGAGACUAAUUGA [g9:g22:cont:t1A]	< 0.0001
UAGUGUGUCACCUUCUCUGAGAGAUUUAGA	0.0619 ± 0.015
UUCACUCUCACCUUCUCUGAGAGUUUAACA	0.0925 ± 0.013
UACACUGUCACCUUCUCUGAGAGAUUAUACA	0.289 ± 0.046
UAGUGACAGUCCUUCUCUGAAAGAUUAACA	0.0406 ± 0.0064
UAGUGACAGUGGAACUCUGACACAUUAACA	< 0.0001
UAGAGUGUCACCUUGUCUGAGAGAUUAACA	0.183 ± 0.026
UAGUGAGUCACCUUCUCUGAUAGAUUAACA	0.44 ± 0.024
UUCACUGUCACGAACUCUGAGAGAUUAACA	0.169 ± 0.021
UUGACUGUCACCUUCUCUGAGAGAAUAACA	0.52 ± 0.09
UACACUGUCACCUUCUGUGAGAGUUUAACA	0.0834 ± 0.016
UACACUGUCACUCUUCUCUGAGAGAUUAACA	0.498 ± 0.022
UAGUGUGUCACGUUCUCUGAGUGAUUAACA	0.0182 ± 0.0049
UAGUGAGUCAGCUUCUCAGAGAGAUUAACA	0.252 ± 0.018
UAGACUCAGACCUUCUCUGAGAGAUUAACA	0.145 ± 0.014
UAGUGACCCACCUUCUCUGAGAGAUUAACA	0.534 ± 0.054
AUCACUGUCACGCUUCUCUGAGAGAUUAACA	0.598 ± 0.026
UAGUGACAGACCUUCUCUGUGAGAUUAUCA	0.0196 ± 0.0072
UACACUGUCACCAUCUCUGAGAGAUUAUCA	0.229 ± 0.025

Sequence	pre-steady-state target cleavage rate
UACACUGUCACCUUCUCUGAGAGAUUUAACA	0.457 ± 0.052
UAGUGUGUCACCUUCUCUGAGAGUUUAUCA	0.232 ± 0.056
UAGUGACACACCUUCUCUGAGAGAUAAACA	0.356 ± 0.043
UAGUCUGUCACCUUCUCUGAGAGAUUAACA [g2:g26:cont:t1A]	0.631 ± 0.026
UAGACUGUCACCUUCUCAGAGUGAUUAACA	0.0137 ± 0.0029
UAGUCUGUCACCUUGACUGAGAGAUUAACA	0.0749 ± 0.0088
UAGUCUGUCACCUUCUCUGAGAGAUUAAA	0.159 ± 0.025
UAGUCUGUCACCUUCUCUGAGAGAAUAAGA	0.036 ± 0.012
UAGUGACACACCUUUUCUGAGAGAUUAACA	0.277 ± 0.022
UAGUGUGUCACCUUCUCUUAGAGAUUAACA	0.352 ± 0.025
UAGACUGUCUGGUUCUCUGAGAGAUUAAGA	0.00926 ± 0.0023
UAGUGACAGACCUUCUCUGAGAGAUCAACA	0.146 ± 0.03
UAGUGACUCACCUUCUCUGAGAUAUUAACA	0.269 ± 0.038
UAGUCUGUCACCUUGUCUGAGAGAUUUACA	0.25 ± 0.045
UUCACUGUGACCUUCUCUGAGAGAUAUUGA	0.0216 ± 0.0063
AUCACUGUCACCUUCUCUGAGAGAUAAACA	0.384 ± 0.042
UAGUGACUCACCUUCUCUGUGAGAUUAUGA	0.00708 ± 0.0039
AUCACUGACACCUUCUCUGAGAGAAUAACA	0.533 ± 0.13
UAGUGACAGACCUUCUCUGUGAGUUUAACA	0.0139 ± 0.0037
UUCACUGUCACGUUCUCUGAGAGAUUUACA	0.212 ± 0.024
UAGUGAGACACCUUCUCUGUGAGAUUAACA	0.188 ± 0.016
UAGUGACAGUGCUUACUCUGAGAGAUUAACA	0.00672 ± 0.002
UAGUGAGACACCUUCUCAGAGAGAUUAACA	0.122 ± 0.012

Reference: the supplement of paper PMC10338343
